Measurements taken from the supplement of paper PMC3334620.
Whole data set: some 33,000 sequences, median “E-score (-0.5 to 0.5)” near -0.035, cut for the highest 2% near 0.34. The list shows a part of the results.

Target: T1, Mot3 (UniProt P54785)
T1 sequence: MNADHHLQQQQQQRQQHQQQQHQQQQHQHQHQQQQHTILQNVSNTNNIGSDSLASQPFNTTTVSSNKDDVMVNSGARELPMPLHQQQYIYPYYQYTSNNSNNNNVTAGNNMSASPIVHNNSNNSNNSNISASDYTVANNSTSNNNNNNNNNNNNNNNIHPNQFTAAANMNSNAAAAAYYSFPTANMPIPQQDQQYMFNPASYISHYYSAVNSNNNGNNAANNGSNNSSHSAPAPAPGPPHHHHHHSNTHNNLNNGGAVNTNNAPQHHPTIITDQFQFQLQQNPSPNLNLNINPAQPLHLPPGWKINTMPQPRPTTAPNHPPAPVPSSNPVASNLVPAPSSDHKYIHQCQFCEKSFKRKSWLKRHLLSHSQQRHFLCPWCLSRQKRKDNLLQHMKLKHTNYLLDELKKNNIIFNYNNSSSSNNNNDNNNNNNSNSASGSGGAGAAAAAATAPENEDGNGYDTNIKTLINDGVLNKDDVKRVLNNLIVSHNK
Assay: PBM E-score (8-mer binding enrichment) (E-score (-0.5 to 0.5)); higher = stronger / more preferred TF binding; most listed sequences are background and not binding sites
Settings: protein concentration: 200 nM; construct: GST-full length
Procedure, shortened: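 Full-length yeast transcription factors or their DNA-binding domains, GST-tagged and expressed with PURExpress, were applied at about 100-200 nM to universal all-10-mer Agilent arrays. These arrays had been made double-stranded by primer extension on fresh or once-stripped slides. Detection used fluorescent anti-GST, normalisation used masliner, and E-scores for ungapped eight-base words pooled with reverse complements came from the Universal PBM Analysis Suite.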

Point of comparison: CATCTGGG, “PBM E-score” value -0.254. Against it:
- AATTACAA — higher, 0.362
- AACATAAA — higher, 0.197
- GGGGACGA — higher, -0.246
- AGATTTAT — higher, -0.0544
- GCTTAGCC — lower, -0.3
- GGGATGCA — lower, -0.33
- ACAATCTA — higher, 0.0294
- ATCTACCG — higher, -0.115
- TGACTGAA — higher, 0.0712
- AACTAGAG — higher, 0.0109
- AGACACGA — higher, 0.276
- CGCACACC — higher, -0.0075
- ACGGCTTA — higher, 0.00499
- ATCACTCA — lower, -0.256
- GGGAGCGA — lower, -0.32
- GATCTAAA — higher, -0.0607
- ACTAGAGG — higher, -0.076
- GATACTCA — higher, -0.239
- GACTCGCC — higher, -0.157
- CCGAGTGA — higher, -0.16
- ACGAGAGC — higher, -0.127
- ACTAGCTA — higher, -0.0814
- AGGGCTAA — higher, -0.0945
- CTATGACC — higher, 0.0281
- TCGGACCA — lower, -0.283
- AACTATCG — higher, -0.158
- GCGAGATA — higher, -0.121
- CACGGCTA — higher, 0.0247
- CTGGCCTA — higher, -0.104
- GAGCAACA — higher, 0.12
- GACTAGGA — higher, 0.0453
- AGTTACTA — higher, 0.0423
- CGATCAAG — higher, -0.0122
- ATCTTTTG — higher, -0.0502
- ACTACACG — higher, 0.386
- AGTTCTTC — higher, -0.0277
- CGCTTCAA — higher, -0.235
- CCTTTCGA — higher, -0.0287
- GCGCTTTA — higher, 0.0371
- TACTCTAA — higher, -0.088
- CATTCGTA — higher, 0.157
- AGGGGTCA — higher, -0.151
- ACATCATG — higher, 0.156
- GCTGACAC — higher, 0.0408
- AAGTTGCC — higher, 0.271
- AAGGCTCA — higher, 0.336
- ATGGCCCG — lower, -0.265
- AATAGTAA — higher, 0.0955
- CAGGCGAA — higher, 0.148
- AGCGGGGG — higher, -0.24
- ACTGGGAG — higher, -0.216
- GCGATAAA — higher, 0.0249
- CGGCGAGC — lower, -0.343
- GCAAATTA — higher, 0.233
- CCACTGGC — higher, -0.133
- AACGCGCT — higher, 0.1
- TGACGGAA — higher, 0.0535
- AGAGCCCT — higher, -0.193
- AGGCACTG — higher, 0.483
- CGAAGACA — lower, -0.276
- CCTGCAAG — higher, 0.0257
- ATAGCCGG — higher, -0.0657
- CCTCCATA — higher, 0.0241
- GGCACCCA — higher, 0.29
- CTACACAA — higher, 0.29
- CGCTCCCA — lower, -0.432
- CCTAACTA — higher, 0.0311
- GACAGGGA — higher, -0.089
- CGAGTTAG — higher, 0.0759
- CCCGTAGG — higher, 0.0504
- AAAGCGTT — higher, -0.0184
- AGCGGGAC — higher, -0.177
- GATTACGA — higher, 0.197
- GCAGTGGA — higher, -0.212
- ACACTTAG — higher, 0.126
- ATGAATCG — higher, -0.0323
- GAAAGCAC — higher, 0.123
- AAGGCTAA — higher, 0.035
- GATGGAGC — higher, -0.0215
- GACTGCCC — higher, 0.0754
- ATGGAAAC — lower, -0.255
- CACTGGGG — higher, -0.0515
- CAGACAAA — higher, 0.171
- ATACCCGG — higher, 0.0542
- GCATAACC — higher, -0.197
- CAAGAGTC — higher, -0.0245
- ACATTCTG — higher, 0.0247
- GTTTGTAA — higher, 0.223
- CCCAGATC — higher, -0.111
- CACAATGC — higher, 0.104
- AACCGCCC — higher, -0.0284
- GCGTCGTA — higher, 0.0968
- CCTGCAGA — higher, 0.303
- CCCACACC — higher, -0.149
- ACTACTCC — higher, -0.13
- GATGTATA — higher, 0.195
- TCCTGGAA — higher, 0.0485
- AGGTGACC — higher, 0.0102
- AGCAGCAT — higher, -0.212
- CGAGCTGA — higher, -0.201
- GGTGTTCA — higher, 0.012
- AATCGAGC — higher, -0.092
- CTGACGGA — higher, -0.0993
- ACACCAAG — higher, 0.132
- CCTTCACA — higher, 0.208
- CACGGCGA — higher, 0.117
- CCAAGGGA — lower, -0.275
- AACTTCTG — higher, 0.00551
- CCGCGTAC — higher, 0.16
- ACCGACGC — higher, 0.114
- GCTAAGGA — higher, -0.0929
- ACCCGCCG — higher, -0.166
- CGCACTGA — higher, -0.0968
- ACAGGACA — higher, 0.111
- TACGAATA — higher, 0.15
- CGACAGCG — higher, -0.196
- GGACACTA — higher, -0.102
- AGTATCGA — higher, 0.122
- ACACCCAA — higher, 0.0638
- AGGCATTG — higher, 0.264
- ACTTTTGC — higher, 0.0944
- GTACCTAC — higher, 0.405
- CTCACCGA — lower, -0.354
- ACCTGTTA — higher, 0.167
- AAGTTGCT — higher, 0.0629
- AGACTAGC — higher, -0.219
- CTAGCGTA — higher, -0.0757
- AATGTGAG — higher, 0.0557
- GTTTAAAA — higher, 0.158
- ATGTCACA — higher, 0.233
- TGATGGAA — higher, 0.0632
- AAGACTAA — higher, -0.0119
- ATCTCGCA — higher, 0.0827
- TCAGCCAA — higher, -0.192
- AGAATGCG — higher, -0.0435
- AGCAGCCG — higher, -0.096
- CGAAGGCA — higher, 0.476
- ATGTTGGC — higher, 0.0881
- AAGTGACC — higher, -0.22
- CCAACTTA — higher, -0.0588
- GAAGCTGC — higher, -0.0719
- ATTTCAGG — higher, 0.129
- GCCATTGA — higher, -0.165
- CTCTTGGC — lower, -0.273
- CGCGTCAC — higher, 0.0523
- CCTTTGAC — higher, 0.125
- ATCCCAAC — higher, -0.0736
- CAAAACTG — higher, -0.0699
- AAAGTCGT — higher, -0.0973
- AAGCGGCT — lower, -0.272
- ACGAAAAC — higher, 0.109
- CTGGCTTC — higher, -0.194
- CTATCGTC — higher, -0.142
- ATCATAGA — higher, 0.156
- TAGCGCTA — higher, -0.153
- ATCGGTAC — higher, -0.0819
- AAGGACGT — higher, 0.0581
- TATGGGGA — higher, -0.00446
- ACATGCCG — higher, 0.226
- GACCTTCA — higher, -0.083
- ACAGCTCG — higher, -0.105
- CGACTGCC — higher, -0.0133
- ATTAAACG — higher, 0.312
- CTAGTAAA — higher, 0.196
- ACAGGCGA — higher, 0.0648
- GCTCGGAC — higher, -0.172
- ATTCTTGC — higher, -0.015
- CGTCTGCC — higher, -0.201
- ACACCCGG — higher, 0.0756
- AGTTGCAT — higher, -0.00698
- ACATTTCA — higher, 0.143
